# Measurements as given in PubChem BioAssay AID504832 (National Center for Advancing Translational Sciences (NCATS), 2011).
# In all, about 310,000 compounds went through this assay and about 18,000 (5.8%) were called active. The shares of active, inactive and inconclusive entries below differ from those in the screen. Calls come from the whole dose curve; as a rule, active = well fitted inhibition curve with a large enough effect; inconclusive = small, poorly fitted or top-dose-only effect, or another doubt; inactive = no such curve, though single readings can be large or run the other way. Potencies of inconclusive entries are left out as doubtful fits.
# Test: Primary qHTS for delayed death inhibitors of the malarial parasite plastid, 48 hour incubation
# Details: P. falciparum luciferase growth in erythrocytes; series mostly up to 28.7 µM
# In short: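 Cell-based growth assay: transgenic P. falciparum expressing firefly luciferase, cultured in red cells within RPMI 1640 containing 0.5% w/v Albumax, 24 mM bicarbonate and gentamycin. A drop in luciferase activity indicates inhibition.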
# Potency is the fitted concentration of half-maximal effect; tags give direction and shape of the fitted curve.
row,Compound,Potency
1,CC(=O)O[C@H]1C[C@@H]2CC[C@@H]3[C@H](CC[C@]4(C)C(=O)CC[C@@H]34)[C@@]2(C)C[C@@H]1OC(C)=O,"inconclusive [inhibitor, partial curve, poor fit]"
2,Cc1ccc(N(C(=O)c2nsc(Cl)c2Cl)C(C(=O)NC2CCCC2)c2ccc(O)cc2)cc1C (stereo not given),"inconclusive [inhibitor, single point]"
3,COc1ccc(Nc2cc(C)c3ccc(O)cc3n2)cc1,active: 0.37 µM
4,COc1ccc2nc(NC(=O)CS(=O)(=O)c3ccc(C)cc3)sc2c1,"inconclusive [inhibitor, single point]"
5,O=C(NC1CCCC1)C(c1ccccc1)N(Cc1ccc2c(c1)OCO2)C(=O)Cc1cccs1 (stereo not given),"inconclusive [inhibitor, single point]"
6,CCCCNC(=O)c1cc2c(=O)n3cccc(C)c3nc2n(Cc2ccccc2)c1=N,"inconclusive [inhibitor, full curve, poor fit]"
7,O=C(Oc1ccc(Cl)c2cccnc12)c1ccco1,active: 11.7 µM
8,O=C(COC(=O)C1(c2ccc(F)cc2)CCCC1)NCc1ccco1,inactive
9,COc1ccc(Cc2nnc(NC(=O)C(C)(C)C)s2)cc1,inactive
10,O=C(CN(Cc1ccco1)C(=O)CNS(=O)(=O)c1ccc(Cl)cc1)NCC1CCCO1 (stereo not given),active: 1.85 µM
11,Cn1cc(C(=O)N/N=C/c2c(O)ccc3ccccc23)ccc1=O,active: 2.62 µM
12,COc1ccc(Cn2c(CCC(=O)Nc3ccc(C)c(C)c3)nc3cccnc32)cc1,"inconclusive [inhibitor, single point]"
13,CN1CCN(S(=O)(=O)c2cccc(C(=O)Oc3cccc(C#N)c3)c2)CC1,"inconclusive [inhibitor, single point]"
14,O=C(Nc1ccc(-c2ccc3nncn3n2)cc1)c1ccc(Br)o1,"inconclusive [inhibitor, full curve]"
15,O=C(c1cccs1)N1CCN(S(=O)(=O)c2cccc(Cl)c2Cl)CC1,"inconclusive [inhibitor, single point]"
16,Cn1ncc(Br)c1C(=O)Nc1c(F)c(F)cc(F)c1F,inactive
17,Cc1cc(N/N=C/c2ccccc2O)c2ccccc2n1,active: 0.522 µM
18,N=C1/C(=C\c2ccc(OC(=O)c3ccc(F)cc3)cc2)C(=O)N=C2SC(N3CCCC3)=NN12,inactive
19,CCC(C)NC(=O)C1CCN(S(=O)(=O)N2CCOCC2)CC1 (stereo not given),inactive
20,O=C(Nc1ccccc1)c1ccccc1O,"inconclusive [inhibitor, single point]"
